Experimental data as given in the supplement of paper PMC3334620.
In all, about 33,000 sequences were measured (“E-score (-0.5 to 0.5)”: median about -0.053, highest 2% from about 0.37 on). Some of the results follow.

molecular target: Hap1 (UniProt P0CE41); test: PBM E-score (8-mer binding enrichment) (E-score (-0.5 to 0.5)); higher = stronger / more preferred TF binding; most listed sequences are background and not binding sites; settings: protein concentration: 200 nM; construct: GST-DNA-binding domain
Method: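 Universal 'all 10-mer' protein binding microarrays (Agilent AMADID 015681) probed with GST-tagged S. cerevisiae TFs (full-length or DBD) made by in vitro transcription/translation (PURExpress), about 100-200 nM. Bound TF was detected with fluorescent anti-GST. Each ungapped 8-mer (which stands for itself and its reverse complement) is scored by the PBM enrichment score (E-score), a modified Wilcoxon-Mann-Whitney statistic from -0.5 to +0.5, computed with the Universal PBM Analysis Suite. Scale: above 0.35 generally sequence-specific binding.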

Chain of UniProt P0CE41 (P0CE41 whole entry, the tested form may be a part): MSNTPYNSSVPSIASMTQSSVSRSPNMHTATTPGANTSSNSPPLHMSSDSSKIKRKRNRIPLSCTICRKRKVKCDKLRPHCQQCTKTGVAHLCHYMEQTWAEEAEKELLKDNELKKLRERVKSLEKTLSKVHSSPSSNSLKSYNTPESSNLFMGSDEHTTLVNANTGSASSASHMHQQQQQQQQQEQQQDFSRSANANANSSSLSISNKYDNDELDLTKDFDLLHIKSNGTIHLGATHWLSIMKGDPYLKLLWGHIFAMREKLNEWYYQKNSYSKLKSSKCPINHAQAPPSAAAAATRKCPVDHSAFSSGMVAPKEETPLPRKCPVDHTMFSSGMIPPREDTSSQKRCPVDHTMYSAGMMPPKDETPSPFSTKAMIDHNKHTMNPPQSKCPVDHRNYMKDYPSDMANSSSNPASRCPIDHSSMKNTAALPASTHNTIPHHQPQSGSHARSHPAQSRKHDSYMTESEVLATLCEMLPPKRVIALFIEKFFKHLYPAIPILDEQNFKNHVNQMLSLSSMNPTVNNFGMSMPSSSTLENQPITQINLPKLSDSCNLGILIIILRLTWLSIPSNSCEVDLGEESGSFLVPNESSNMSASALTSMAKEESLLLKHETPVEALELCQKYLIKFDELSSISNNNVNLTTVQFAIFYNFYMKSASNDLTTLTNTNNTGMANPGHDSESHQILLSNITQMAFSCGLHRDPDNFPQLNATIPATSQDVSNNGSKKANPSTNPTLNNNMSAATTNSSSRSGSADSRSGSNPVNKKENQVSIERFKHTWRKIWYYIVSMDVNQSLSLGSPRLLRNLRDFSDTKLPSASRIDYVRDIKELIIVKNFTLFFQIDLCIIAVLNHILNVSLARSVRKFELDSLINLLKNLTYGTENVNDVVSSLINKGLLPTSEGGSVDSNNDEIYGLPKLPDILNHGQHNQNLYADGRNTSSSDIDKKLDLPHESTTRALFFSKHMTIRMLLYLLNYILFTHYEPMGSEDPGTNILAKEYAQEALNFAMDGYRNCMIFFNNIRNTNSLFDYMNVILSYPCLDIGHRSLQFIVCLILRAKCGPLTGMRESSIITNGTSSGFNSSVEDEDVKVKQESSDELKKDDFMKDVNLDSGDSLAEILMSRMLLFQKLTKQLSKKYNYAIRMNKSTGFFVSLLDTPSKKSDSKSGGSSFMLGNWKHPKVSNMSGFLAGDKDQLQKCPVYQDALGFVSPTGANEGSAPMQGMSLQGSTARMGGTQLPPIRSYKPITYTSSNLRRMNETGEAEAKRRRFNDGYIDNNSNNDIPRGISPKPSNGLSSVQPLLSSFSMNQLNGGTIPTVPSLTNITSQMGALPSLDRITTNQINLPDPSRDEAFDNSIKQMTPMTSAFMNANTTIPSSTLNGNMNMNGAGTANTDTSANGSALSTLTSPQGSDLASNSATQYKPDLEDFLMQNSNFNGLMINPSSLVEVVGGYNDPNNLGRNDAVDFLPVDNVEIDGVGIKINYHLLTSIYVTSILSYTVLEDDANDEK

| Sequence | PBM E-score |
| --- | --- |
| GCTTAGTA | -0.191 |
| ATTCTCGA | -0.129 |
| ATTTTATC | 0.189 |
| AGAGGCCC | -0.182 |
| AGCGATTC | 0.061 |
| GCCAACCC | -0.0872 |
| GAGGTTAA | 0.0192 |
| ACTCCTTG | 0.034 |
| AAATACGA | -0.0883 |
| ACGCTACC | -0.0808 |
| CTTACGCC | 0.15 |
| ATCGGGTA | 0.283 |
| TACATCGA | -0.0967 |
| CCAGTTCG | 0.0694 |
| AGGAATCC | -0.0692 |
| GTACCAAC | 0.0726 |
| ATCGAAAC | 0.067 |
| GCCTAAAA | -0.205 |
| CCTGCGCA | -0.126 |
| CAGGCCCA | -0.241 |
| ACGCTGAC | -0.115 |
| CCGTCCTA | -0.104 |
| ACAGCTAT | -0.198 |
| CAGTGACG | 0.00406 |
| GCTGTTAA | 0.109 |

| Sequence | PBM E-score |
| --- | --- |
| ACGCGTTG | 0.0771 |
| CGTGTGAG | -0.172 |
| CATCGACC | -0.00088 |
| GAATGATA | 0.116 |
| AAAACTCA | 0.0194 |
| ACGGCACT | 0.195 |
| AAGCAATT | -0.0596 |
| AGATGTGA | -0.0854 |
| TATGAAGA | -0.111 |
| GCATTTTA | 0.17 |
| AATCTAGC | -0.122 |
| GCATCAGC | -0.0939 |
| TCCCAAAA | -0.0766 |
| TAGCATCA | -0.0893 |
| CTCCGTTC | 0.301 |
| CACAGACC | 0.0985 |
| CAAGCAGG | -0.0653 |
| AGCAACTC | -0.0962 |
| CGTCTCGC | 0.0261 |
| ACGGCCAA | 0.166 |
| AATCTGAA | -0.0832 |
| ATCTCTAA | 0.0904 |
| CCTTACGA | -0.162 |
| TCATAACA | -0.107 |
| ATTTATCC | 0.172 |

| Sequence | PBM E-score |
| --- | --- |
| TAAAATTA | -0.0441 |
| AGAACCCG | 0.128 |
| CACATAGA | -0.168 |
| ACAGATCA | -0.0146 |
| GGCGTGGA | -0.0379 |
| GAAATTAA | 0.0698 |
| CACTCTCA | -0.305 |
| AGACAGGC | -0.0669 |
| AAGGTCCT | -0.155 |
| ATACACGA | -0.184 |
| CATACATA | -0.0798 |
| AATCGAGT | -0.14 |
| AATAACGA | 0.0252 |
| CGATACCC | 0.205 |
| AGTGTTCG | 0.0985 |
| CCACCACC | 0.0435 |
| AATTGAAT | -0.0703 |
| CTACCACC | -0.0602 |
| GTGACCCA | -0.178 |
| CGTGCACG | 0.122 |
| ATCCGCGG | 0.32 |
| CGACCACC | 0.169 |
| GATGTTTA | -0.122 |
| ATAATAGA | -0.0573 |
| ACTGGTCG | -0.0744 |

| Sequence | PBM E-score |
| --- | --- |
| GACAGCAA | -0.221 |
| CGGTAAAG | 0.275 |
| CTGGACCC | -0.106 |
| ACGATCTA | -0.34 |
| ACTCAAGC | -0.0986 |
| GATCGCAC | -0.0615 |
| GAAGAGTC | -0.168 |
| CCCTGATA | -0.156 |
| ATGTTAAA | -0.0832 |
| CATTGCCC | -0.111 |
| ACGGATGG | 0.165 |
| ACGAGGGC | 0.0421 |
| GCCTCATA | -0.184 |
| AGGGCGAG | -0.175 |
| AGTAATCC | 0.0848 |
| AAAGGCTC | -0.0504 |
| ACCTCTTA | 0.175 |
| TCTCACAA | -0.0963 |
| CTGATTCA | -0.232 |
| CAGTTGGA | -0.199 |
| ATCAAAAC | 0.0206 |
| CGTCGATA | 0.137 |
| GACTATCA | -0.147 |
| ATCAGACC | 0.0524 |
| GATGTAGC | 0.0109 |

| Sequence | PBM E-score |
| --- | --- |
| GGAAGTCC | 0.122 |
| ATCGCAAC | -0.135 |
| AATGAGCT | -0.0653 |
| AATATGCA | 0.0149 |
| TCGTCTCA | -0.14 |
| GCATTCGA | 0.0247 |
| CCCCCGCG | 0.159 |
| CAGCAAAA | -0.247 |
| CTCTTACC | 0.153 |
| CACCAACG | -0.0214 |
| AAAGCTAC | -0.13 |
| CTCCTCTA | -0.246 |
| GACGGAAA | 0.314 |
| CTTGCCCA | -0.18 |
| AGTCAGTG | -0.235 |
| AGGAAACC | 0.0632 |
| ACACGGGG | 0.13 |
| AGCAGCCT | -0.25 |
| AAATTTCG | 0.161 |
| CCGTAAAA | 0.262 |
| GGGTAAAA | 0.0311 |
| ATTGGCCC | -0.0569 |
| CCGCGGAC | 0.383 |
| ATACTACA | 0.003 |
| AACTTAAA | -0.186 |

| Sequence | PBM E-score |
| --- | --- |
| CACCAGCG | -0.13 |
| AATGAGAG | -0.144 |
| AACACTGT | -0.205 |
| AACGTTTC | -0.19 |
| CAGTAAAG | -0.185 |
| GGACGACA | 0.0773 |
| GGTAGTGA | -0.0893 |
| CGCAGAAA | -0.0644 |
| AAGGCCTG | -0.191 |
| AGCGAATG | -0.157 |
| ACCATACG | -0.149 |
| AGCGGGGC | 0.108 |
| GGTTTACA | -0.0158 |
| AAACATGC | -0.123 |
| AGTAACGC | -0.0724 |
| ATTAGCTG | -0.12 |
| ATCCAAAA | -0.0459 |
| GCTTCAGA | -0.107 |
| CCATAAGA | -0.0726 |
| GAACTAGC | 0.0324 |
| CTCATGAG | -0.228 |
| CAGAAACG | -0.074 |
| GCGTCACC | -0.0889 |
| CTGAAATA | -0.104 |
| AACCTTCC | 0.0161 |

| Sequence | PBM E-score |
| --- | --- |
| ATCGAAAA | -0.0311 |
| AAAGTTTA | 0.0987 |
| TAATTACA | -0.0885 |
| CGGGCGCA | 0.221 |
| GATGAAAC | 0.0604 |
| GAAGTACC | 0.158 |
| GTCTCGCA | -0.267 |
| GAAATAGA | -0.0205 |
| GGCCCCCC | 0.0493 |
| CAGTCGTA | 0.012 |
| ACATAGGC | -0.0315 |
| CTTCTACC | -0.0795 |
| CCGATGTA | 0.287 |
| ATAGCCAC | -0.0645 |
| TATAGAAA | -0.199 |
| AAAGTACC | -0.129 |
| CCTCCGCG | 0.198 |
| AGACCGTC | 0.0627 |
| GTTCGCAA | -0.0201 |
| AATATCAG | -0.0864 |
| ACTATAGT | -0.0199 |
| CTGCGGGC | 0.215 |
